# The list shows a part of the results.
# Columns and labels:
# Test in all cases: glycan array binding signal (z-score within array); higher = stronger binding
# Conditions in all cases: glycan notation: IUPAC condensed, linker removed
# [1] = target: Fuc(a1-2)Gal
# How it was run: (§1)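 Glycan array data were curated from 3228 arrays in the Consortium for Functional Glycomics database and kept only where the protein sequence was available. Glycan names were converted to IUPAC-condensed notation, and columns mapping to the same glycan were averaged. The binding signal is a within-array Z-score, averaged across arrays of the same protein sequence at different concentrations or buffers and across linkers. Negative Z-scores can be read as non-binding.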
# [2] = target: Fuc(a1-2)Gal(b1-3)GalNAc
# How it was run: as §1
# [3] = target: Fuc(a1-2)Gal(b1-3)GalNAc(a1-3)[Fuc(a1-2)]Gal(b1-4)Glc
# How it was run: as §1
# [4] = target: Fuc(a1-2)Gal(b1-3)GalNAc(a1-3)[Fuc(a1-2)]Gal(b1-4)GlcNAc
# How it was run: as §1
# [5] = target: Fuc(a1-2)Gal(b1-3)GalNAc(b1-3)Gal
# How it was run: as §1
# [6] = target: Fuc(a1-2)Gal(b1-3)GalNAc(b1-3)Gal(a1-4)Gal(b1-4)Glc
# How it was run: as §1
# [7] = target: Fuc(a1-2)Gal(b1-3)GalNAc(b1-4)[Neu5Ac(a2-3)]Gal(b1-4)Glc
# How it was run: as §1
# [8] = target: Fuc(a1-2)Gal(b1-3)GlcNAc
# How it was run: as §1
# [9] = target: Fuc(a1-2)Gal(b1-3)GlcNAc(b1-2)Man(a1-3)[Fuc(a1-2)Gal(b1-3)GlcNAc(b1-2)Man(a1-6)]Man(b1-4)GlcNAc(b1-4)GlcNAc
# How it was run: as §1
# [10] = target: Fuc(a1-2)Gal(b1-3)GlcNAc(b1-2)Man(a1-3)[Fuc(a1-2)Gal(b1-3)GlcNAc(b1-2)Man(a1-6)]Man(b1-4)GlcNAc(b1-4)[Fuc(a1-6)]GlcNAc
# How it was run: as §1
# [11] = target: Fuc(a1-2)Gal(b1-3)GlcNAc(b1-3)Gal(b1-4)Glc
# How it was run: as §1
# [12] = target: Fuc(a1-2)Gal(b1-3)GlcNAc(b1-3)GalNAc
# How it was run: as §1
# [13] = target: Fuc(a1-2)Gal(b1-3)GlcNAc(b1-3)[Fuc(a1-2)Gal(b1-3)GlcNAc(b1-6)]GalNAc
# How it was run: as §1
# [14] = target: Fuc(a1-2)Gal(b1-3)GlcNAc(b1-3)[Gal(b1-4)GlcNAc(b1-6)]Gal(b1-4)Glc
# How it was run: as §1
# [15] = target: Fuc(a1-2)Gal(b1-3)GlcNAc(b1-3)[Neu5Ac(a2-6)Gal(b1-4)GlcNAc(b1-6)]Gal(b1-4)Glc
# How it was run: as §1
# [16] = target: Fuc(a1-2)Gal(b1-3)GlcNAc6S
# How it was run: as §1
# [17] = target: Fuc(a1-2)Gal(b1-3)[Fuc(a1-4)]GlcNAc
# How it was run: as §1
# [18] = target: Fuc(a1-2)Gal(b1-3)[Fuc(a1-4)]GlcNAc(b1-2)Man(a1-3)[Fuc(a1-2)Gal(b1-3)[Fuc(a1-4)]GlcNAc(b1-2)Man(a1-3)]Man(b1-4)GlcNAc(b1-4)GlcNAc
# How it was run: as §1
# [19] = target: Fuc(a1-2)Gal(b1-3)[Fuc(a1-4)]GlcNAc(b1-2)Man(a1-3)[Fuc(a1-2)Gal(b1-3)[Fuc(a1-4)]GlcNAc(b1-2)Man(a1-6)]Man(b1-4)GlcNAc(b1-4)[Fuc(a1-6)]GlcNAc(b1-4)[Fuc(a1-6)]GlcNAc
# How it was run: as §1
# [20] = target: Fuc(a1-2)Gal(b1-3)[Fuc(a1-4)]GlcNAc(b1-3)[Fuc(a1-3)[Gal(b1-4)]GlcNAc(b1-6)]Gal(b1-4)Glc
# How it was run: as §1
# [21] = target: Fuc(a1-2)Gal(b1-3)[Fuc(a1-4)]GlcNAc(b1-3)[Gal(b1-4)GlcNAc(b1-6)]Gal(b1-4)Glc
# How it was run: as §1
# [22] = target: Fuc(a1-2)Gal(b1-4)Fuc(a1-3)]GlcNAc(b1-2)Man(a1-3)[Fuc(a1-2)Gal(b1-4)[Fuc(a1-3)]GlcNAc(b1-2)Man(a1-6)]Man(b1-4)GlcNAc(b1-4)GlcNAc
# How it was run: as §1
# [23] = target: Fuc(a1-2)Gal(b1-4)Glc
# How it was run: as §1
# [24] = target: Fuc(a1-2)Gal(b1-4)Glc6S
# How it was run: as §1
# [25] = target: Fuc(a1-2)Gal(b1-4)GlcNAc
# How it was run: as §1
# [26] = target: Fuc(a1-2)Gal(b1-4)GlcNAc(b1-2)Man
# How it was run: as §1
# [27] = target: Fuc(a1-2)Gal(b1-4)GlcNAc(b1-2)Man(a1-3)[Fuc(a1-2)Gal(b1-4)GlcNAc(b1-2)Man(a1-6)]Man(b1-4)GlcNAc(b1-4)GlcNAc
# How it was run: as §1
# [28] = target: Fuc(a1-2)Gal(b1-4)GlcNAc(b1-2)Man(a1-3)[Fuc(a1-2)Gal(b1-4)GlcNAc(b1-2)Man(a1-6)]Man(b1-4)GlcNAc(b1-4)[Fuc(a1-6)]GlcNAc
# How it was run: as §1
# [29] = target: Fuc(a1-2)Gal(b1-4)GlcNAc(b1-2)[Fuc(a1-2)Gal(b1-4)GlcNAc(b1-4)]Man(a1-3)[Fuc(a1-2)Gal(b1-4)GlcNAc(b1-2)Man(a1-6)]Man(b1-4)GlcNAc(b1-4)GlcNAc
# How it was run: as §1
# [30] = target: Fuc(a1-2)Gal(b1-4)GlcNAc(b1-3)Gal(b1-4)GlcNAc
# How it was run: as §1
# [31] = target: Fuc(a1-2)Gal(b1-4)GlcNAc(b1-3)Gal(b1-4)GlcNAc(b1-2)Man(a1-3)[Fuc(a1-2)Gal(b1-4)GlcNAc(b1-3)Gal(b1-4)GlcNAc(b1-2)Man(a1-6)]Man(b1-4)GlcNAc(b1-4)GlcNAc
# How it was run: as §1
# [32] = target: Fuc(a1-2)Gal(b1-4)GlcNAc(b1-3)Gal(b1-4)GlcNAc(b1-3)Gal(b1-4)GlcNAc
# How it was run: as §1
# [33] = target: Fuc(a1-2)Gal(b1-4)GlcNAc(b1-3)GalNAc
# How it was run: as §1
# [34] = target: Fuc(a1-2)Gal(b1-4)GlcNAc(b1-3)[Fuc(a1-2)Gal(b1-4)GlcNAc(b1-6)]GalNAc
# How it was run: as §1
# [35] = target: Fuc(a1-2)Gal(b1-4)GlcNAc(b1-3)[Fuc(a1-3)[Gal(b1-4)]GlcNAc(b1-6)]Gal(b1-4)Glc
# How it was run: as §1
# [36] = target: Fuc(a1-2)Gal(b1-4)GlcNAc(b1-6)GalNAc
# How it was run: as §1
# [37] = target: Fuc(a1-2)Gal(b1-4)GlcNAc6S
# How it was run: as §1
binder,measurement,setting,value
DC-ASGPR L+GEE (Homo sapiens) (protein) MTRTYENFQYLENKVKVQGFKNGPLPLQSLLQRLRSGPCHLLLSLGLGLLLLVIICVVGFQNSKFQRDLVTLRTDFSNFTSNTVAEIQALTSQGSSLEETIASLKAEVEGFKQERQAGVSELQEHTTQKAHLGHCPHCPSVCVPVHSEMLLRVQQLVQDLKKLTCQVATLNNNGEEASTEGTCCPVNWVEHQDSCYWFSHSGMSWAEAEKYCQLKNAHLVVINSREEQNFVQKYLGSAYTWMGLSDPEGAWKWVDGTDYATGFQNWKPGQPDDWQGHGLGGGEDCAHFHPDGRWNDDVCQRPYHWVCEAGLGQTSQESH,glycan array binding signal (z-score),[1],0.04
same,glycan array binding signal (z-score),[2],-0.483
same,glycan array binding signal (z-score),[3],-0.484
same,glycan array binding signal (z-score),[4],-0.331
same,glycan array binding signal (z-score),[5],-0.076
same,glycan array binding signal (z-score),[6],-0.503
same,glycan array binding signal (z-score),[7],0.197
same,glycan array binding signal (z-score),[8],-0.458
same,glycan array binding signal (z-score),[9],0.259
same,glycan array binding signal (z-score),[10],-0.314
same,glycan array binding signal (z-score),[11],-0.267
same,glycan array binding signal (z-score),[12],-0.282
same,glycan array binding signal (z-score),[13],-0.493
same,glycan array binding signal (z-score),[14],0.314
same,glycan array binding signal (z-score),[15],-0.405
same,glycan array binding signal (z-score),[16],-0.46
same,glycan array binding signal (z-score),[17],-0.297
same,glycan array binding signal (z-score),[18],-0.252
same,glycan array binding signal (z-score),[19],-0.191
same,glycan array binding signal (z-score),[20],-0.413
same,glycan array binding signal (z-score),[21],-0.725
same,glycan array binding signal (z-score),[22],0.33
same,glycan array binding signal (z-score),[23],-1.02
same,glycan array binding signal (z-score),[24],-0.396
same,glycan array binding signal (z-score),[25],-0.198
same,glycan array binding signal (z-score),[26],0.054
same,glycan array binding signal (z-score),[27],-0.539
same,glycan array binding signal (z-score),[28],-0.017
same,glycan array binding signal (z-score),[29],-0.521
same,glycan array binding signal (z-score),[30],-0.787
same,glycan array binding signal (z-score),[31],0.538
same,glycan array binding signal (z-score),[32],-0.176
same,glycan array binding signal (z-score),[33],0.17
same,glycan array binding signal (z-score),[34],0.128
same,glycan array binding signal (z-score),[35],-0.08
same,glycan array binding signal (z-score),[36],2.17
same,glycan array binding signal (z-score),[37],-0.553

# Reference: the supplement of paper PMC8728848
